Measured values from PubChem BioAssay AID652104 (National Center for Advancing Translational Sciences (NCATS), 2013).
About 7,200 (1.8%) of roughly 410,000 compounds were called active. The inconclusive results got no clear call from the source; some entries with a clear call stand among them for comparison. The call rests on the fitted dose curve; in most records, active means well fitted activation curve with a large enough effect; inconclusive means small, poorly fitted or top-dose-only effect, or another doubt; inactive means no such curve, though single readings can be large or run the other way. Potencies beside an inconclusive call are fits to weak or partial responses and may not hold up.

Assay: qHTS of TDP-43 Inhibitors; further: nearly all actives have a fitted effect of over 50% in size
Settings: TDP-43 expressing yeast growth rescue, BacTiter-Glo, 24 h; series mostly up to 46.1 µM
Outline: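 Cell-based yeast growth screen: TDP-43 expression induced in galactose, inoculum OD600=0.02 after raffinose pregrowth to mid-log. Read-out BacTiter-Glo luminescence at 24 hr, 30 deg C; inhibition of toxicity seen as signal increase.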
Potency means the concentration at half of the fitted maximal effect; tags describe the fitted curve by direction and shape.

Potency, active:
Cc1ccc(C(=O)c2coc3ccc(O)c(Cl)c23)cc1 15.8 µM
OC(c1ccccc1)c1nc(/C=C/c2ccccc2)cs1 (configuration not stated) 14.1 µM
O=C(CCCC(=O)OCC(Cl)=C(Cl)Cl)Nc1ccc(F)cc1 15.8 µM

Potency, inactive:
Cc1ccc(CNC(=O)c2ccc(N3Cc4ccccc4Oc4ncccc43)s2)cc1
CC(C)=C(NC(=O)c1ccccc1)C(=O)Nc1cccc(C)c1
Cc1ccc(C2N3CC4(C)CN2CC(c2ccccc2)(C3)C4=O)cc1 (configuration not stated)
C/C(CC(=O)Nc1ccc(Cl)cc1Cl)=N\NC(=O)c1ccco1
Cc1ccc(CNC(=O)Cn2ccn(-c3ccc(F)c(F)c3)c(=O)c2=O)cc1
CCOc1cc2[nH]c(=O)n(CCCCC(=O)NCc3ccco3)c(=O)c2cc1OCC
Cc1cccc(NC(=O)c2oc3ccccc3c2NC(=O)Cc2coc3cc(C)cc(C)c23)c1
Cc1cc(N2CCN(c3ccc(F)cc3)CC2)n2cnnc2n1
COC(=O)Nc1ccc(S(=O)(=O)NNC(=O)c2c(O)c3ccccc3n(C)c2=O)cc1
Cc1ccc(O)c(CC(C)C)n1
O=C(Nc1ccc(N2C(=O)C3C4C=CC(C4)C3C2=O)cc1)Nc1nnc(C(F)(F)F)s1 (configuration not stated)
NNc1ccc(Cc2ccc(Cl)cc2Cl)nn1
Cc1nn(CC(=O)N2CCOCC2)c(=O)c2nn(-c3ccccc3)c(C)c12
O=C(Cn1ncc2c3ccccc3n(Cc3ccccc3)c2c1=O)NCCCN1CCCCC1
COc1ccc(CCN2C(=O)CN(C3CCCCCC3)C(=O)C2c2ccc(Cl)cc2)cc1OC (configuration not stated)
CC(C)(C)c1ccc(NC(=O)c2ccc(=O)[nH]n2)cc1

Potency, inconclusive:
CSc1ccc(CN2C(=O)NC3(CCCCCC3)C2=O)cc1 12.6 µM [activator, single point]
COCCNC(=O)C1CCCN(C(=O)c2ccnc(Cl)c2)CC1 (configuration not stated) 10 µM [activator, partial curve]
CCOc1ccc(C(=O)Nc2ccc(C(=O)OCc3cc(=O)n4c(C)csc4n3)cc2)cc1 17.8 µM [activator, single point]
CC1=C2C(=O)OC(c3ccoc3)C2(C)CCC1 (configuration not stated) 28.2 µM [activator, partial curve, poor fit]
COc1cc2ncc(S(=O)(=O)c3ccccc3)c(N3CCC4(CC3)OCCO4)c2cc1OC 35.5 µM [activator, single point]
Cc1cc(C)c(C(=O)COC(=O)C2CCN(c3ccc(C(F)(F)F)cn3)CC2)c(C)c1 11.2 µM [activator, partial curve]
O=C(c1ccoc1)N1CCN(c2cc(-c3ccccc3)nc3cc(-c4ccc(Br)cc4)nn23)CC1 20 µM [activator, partial curve]
Oc1c(C(c2ccc(Cl)cc2Cl)N2CCN(Cc3ccccc3)CC2)sc2nc(-c3ccco3)nn12 (configuration not stated) 7.08 µM [activator, partial curve]
CSc1ccccc1NC(=O)COC(=O)CCCOc1ccc(C)cc1 39.8 µM [activator, partial curve, poor fit]
COc1cc2c(cc1OC)C(C)N(C(=O)c1cc3ccccc3o1)CC2 (configuration not stated) 11.2 µM [activator, single point]
Cc1ccc(-c2csc3ncnc(N4CCN(C(=O)c5ccccc5)CC4)c23)cc1 22.4 µM [activator, single point]
CCCCCCNC(=O)N1C/C=C\C(c2ccc(OC)cc2)N(Cc2ccc(F)cc2)C(=O)C1 (configuration not stated) 20 µM [activator, partial curve]
COc1ccccc1NC(=O)Cc1csc(NC(=O)c2ccccc2)n1 11.2 µM [activator, partial curve]
Cc1ccc(S(=O)(=O)Oc2ccccc2/C=N/NC(=O)c2c(Cl)cnn2C)cc1 20 µM [activator, partial curve]
O=S(=O)(N=C1C=CC(=NS(=O)(=O)c2ccccc2)c2ccccc21)c1ccccc1 10 µM [activator, partial curve]
COc1ccc(Cl)cc1NC(=O)CSc1nc(=O)[nH]c2c1CCC2 35.5 µM [activator, partial curve, poor fit]
O=C(/C=C/c1ccc(F)cc1)NCCC1=CCCCC1 3.16 µM [activator, single point]
Cc1ccc(C(=O)c2cn(Cc3ccccc3)c3ccccc3c2=O)cc1 14.1 µM [activator, single point]
Cc1ccc(S(=O)(=O)N(C)CC(=O)Nc2cccc3c2CCCC3)cc1 11.2 µM [activator, partial curve]
COc1ccc2nc(NC(=O)c3ccco3)sc2c1 14.1 µM [activator, partial curve]
Cc1ccccc1NC(=S)NC(=O)CCc1ccccc1 12.6 µM [activator, partial curve]
CCc1ccc(NC(=O)CN2C(C(=O)OC)=C(c3ccccc3)c3ccccc3S2(=O)=O)cc1 35.5 µM [activator, partial curve, poor fit]
COc1ccc(NC(=O)CN(C)C(=O)Cc2coc3cc(C)c(C)cc23)cc1 35.5 µM [activator, single point]
CCc1cc(=O)oc2c(C)c(OCC(=O)NCCN3CCOCC3)ccc12 31.6 µM [activator, single point]
O/C(=C\c1nc2ccccc2nc1/C=C(\O)c1ccccc1)c1ccccc1 5.62 µM [activator, partial curve]
Cc1c(Cl)cccc1NC(=O)C1Cc2ccccc2CN1C(=O)c1ccccc1 (configuration not stated) 20 µM [activator, partial curve]
Cc1ccc(CC2CC(=O)N(c3ccncc3)C2=O)cc1 (configuration not stated) 10 µM [activator, partial curve]
Cc1ccc(C(C(=O)NCC2CCCO2)N(Cc2ccccc2)C(=O)c2ccc(-c3ccccc3)[nH]2)o1 (configuration not stated) 31.6 µM [activator, single point]
O=C(Nc1ccccc1F)c1ccc2nc(N3C(=O)CCC3=O)sc2c1 11.2 µM [activator, single point]
COC(=O)N/N=C/c1cn(Cc2ccc(Cl)cc2Cl)c2ccccc12 15.8 µM [activator, partial curve]
CCc1nc2ccc(C(=O)Nc3cccc(C(C)=O)c3)cc2nc1CC 22.4 µM [activator, partial curve, poor fit]
COc1ccccc1C1CCN(C(=O)c2ccccc2)CC1 11.2 µM [activator, partial curve]
CC1CN(C(=O)N2CCC(C(=O)NCc3ccco3)CC2)c2ccccc2O1 (configuration not stated) 6.31 µM [activator, partial curve, poor fit]
Cc1ccc(NC(=O)COC(=O)C2CC2)cc1Cl 35.5 µM [activator, single point]
C=CCN(CC=C)C(=O)C(=O)c1cc(C)n(-c2ccc([N+](=O)[O-])cc2)c1C 31.6 µM [activator, partial curve]
CC(/C=N/N1CCN(c2ccccn2)CC1)=C\c1ccccc1 35.5 µM [activator, single point]
Cc1cc(C)nc(SC2c3cccc4cccc(c34)C2NS(=O)(=O)c2ccccc2)n1 (configuration not stated) 12.6 µM [activator, partial curve]
Cc1cccc(C)c1OCC(=O)Nc1ccc(N2CCOCC2)cc1 12.6 µM [activator, partial curve]
CCN(Cc1ccccc1)C(=O)c1cn(-c2cccc(OC)c2)c(=O)c2ccccc12 5.01 µM [activator, partial curve]
COc1ccc(C(=O)NNC(=O)c2ccccn2)cc1 12.6 µM [activator, single point]
CC(=O)N1CCc2cc(S(=O)(=O)NC(Cc3ccccc3)C(=O)Nc3cc(C)cc(C)c3)ccc21 (configuration not stated) 2.51 µM [activator, full curve, poor fit]
Cc1cccc(OCCNC(=S)NC(=O)c2cccnc2)c1 7.08 µM [activator, full curve, poor fit]
CCOc1ccccc1-c1nc2c([nH]1)c(=O)n(C)c(=O)n2C 31.6 µM [activator, single point]
COCCNC(=S)Nc1cc2oc3ccccc3c2cc1OC 25.1 µM [activator, single point]
CC(=O)Nc1ccc(NC(=O)CSc2nnc(NC(=O)c3ccco3)s2)cc1 2.24 µM [activator, full curve, poor fit]
O=C(Nc1ccc2ncccc2c1)c1ccccc1Br 5.62 µM [activator, partial curve]
O=S1(=O)c2ccccc2N(Cc2ccc(F)cc2)c2ccccc21 17.8 µM [activator, single point]
CC(C)(C)OC(=O)N1CCc2onc(-c3ccc(Br)cc3)c2C1=O 14.1 µM [activator, partial curve]
